Test [1] deals with T1, Full length HER2 (ErbB2) (human, UniProt P04626).
T1 construct: Endogenous HER2 of human cancer cell lines (SKBR3, BT474, MDA-MB-361, JIMT-1 and others); also called cell surface Her2
Nature of the test: cell staining at 200 nM, JIMT-1 and other cell lines.

Test [2] deals with T2, Her008P (full-length Her2 ECD with mIgG2a Fc tail) (human; murine, UniProt P04626 part only).
T2 construct: also called SIIS; SIIS (Dimer); not shown: murine IgG2a Fc tail
Nature of the test: BIACORE SPR, 25 C. For orientation: SPR reads the build-up and loss of mass on a sensor chip optically.

Test [3] concerns the target T3, Her018P (Her2 ECD with a deletion in the CR2 (Domain IV) region, mIgG2a Fc tail) (human; murine, UniProt P04626 part only).
T3 construct: also called 1.8 (Dimer); not shown: murine IgG2a Fc tail (and any junction to it)
Nature of the test: BIACORE SPR, 25 C.

Test [4] has as its target 1.6 (Dimer). Nature of the test: BIACORE SPR, 25 C.
Test [5] addresses T4, Her155 (Monomer) (UniProt P04626 part only, limits assumed).
T4 construct: extracellular domain; also called monomeric Her2 ECD; monomeric HER2 receptor
The experiment in a line: BIACORE SPR, 25 C.

What is called Kd is the equilibrium constant for the complex coming apart. A low value points to a tighter complex.

B1: HER085 (Fc fusion)
chain: [about 100 residues not shown]GGSGSDYWGQGTMVTVSSGGGGSGGGGSGGGGSALNFMLTQPHSVSGSPGKTVTISCTRSSGYIDSKYVQWYQQRPGSAPTTVIYEDNRRPSGVPDRFSGSIDSSSNSASLTISGLETEDEADYYCQSYDDTNVVFGGGTKVTVLGDVR[human IgG1 Fc with changes not shown]
Regarding B1, the binding result in test [1] is “binds”.

B2: HER146 (Fc fusion)
chain: [about 100 residues not shown]SNSYYYFDYWGQGTLVTVSSGGGGSGGGGSGGGGSALSSELTQDPAVSVALGQTVRITCQGDSLRNFYPSWYQQKPGQAPVLVIYGKNIRPSGIPDRFSGSGSGSTASLTITGAQAEDEADYYCNSRDSSGKHMGVVFGGGTKLTVLGDVR[human IgG1 Fc with changes not shown]
notes: SMIP; also called Her0146; Her 46
With B2, the Kd is 4.14 nM in test [2], 2.8 nM in test [3], 4.2 nM in test [4] and 193 nM in test [5].

(Values after patent publication US20090304590A1 (published 2009).)
